Test results taken from the antibiotic and cytotoxicity screens of Wong et al. (2023).
Some of the results follow.

System: S. aureus RN4220
Assay: growth inhibition call (relative growth <= 0.2)
Details: 50 µM

Growth inhibition call, inactive:
COc1ccc(CN(C)C[C@@H]2OCCCC[C@H](C)Oc3ccc(NS(=O)(=O)c4cccs4)cc3C(=O)N([C@H](C)CO)C[C@@H]2C)cc1
C[C@@H]1CN([C@H](C)CO)C(=O)c2cc(NS(=O)(=O)c3cccs3)ccc2O[C@@H](C)CCCCO[C@H]1CN(C)Cc1ccc(C(F)(F)F)cc1
O=C(N/N=C/[C@@H](O)[C@H](O)[C@H](O)CO)c1ccccn1
C[C@H](CO)N1C[C@H](C)[C@@H](CN(C)C(=O)Nc2cccc3ccccc23)OCCCC[C@H](C)Oc2ccc(NC(=O)Nc3ccccc3)cc2C1=O
C#CCN(C)CCCOc1ccc(Cl)cc1Cl.Cl
C[C@@H]1CN([C@H](C)CO)S(=O)(=O)c2ccc(C#CC3(O)CCCC3)cc2O[C@@H]1CN(C)C(=O)c1cccnc1
C[C@@H]1CN([C@@H](C)CO)C(=O)Cc2cc(NC(=O)CCN3CCOCC3)ccc2O[C@@H]1CN(C)CC1CCCCC1
COC1=C2C[C@@H](C)C[C@H](OC)[C@H](O)[C@@H](C)/C=C(\C)[C@H](OC(N)=O)[C@@H](OC)/C=C\C=C(/C)C(=O)NC(=CC1=O)C2=O
C[C@H](CO)N1C[C@H](C)[C@@H](CN(C)C(=O)Nc2cccc3ccccc23)Oc2ccc(NC(=O)C3CCCCC3)cc2C1=O
C[C@H](CO)N1C[C@H](C)[C@@H](CN(C)Cc2ccc(Cl)c(Cl)c2)OCCCC[C@H](C)Oc2ccc(NC(=O)Cc3ccccc3)cc2C1=O
O=C(C[C@@H]1CC[C@H]2[C@@H](COC[C@H](O)CN2S(=O)(=O)c2ccccc2)O1)NCCN1CCCC1
Cc1ccc(S(=O)(=O)N(C)C[C@@H]2Oc3cc(C#Cc4ccncc4)ccc3S(=O)(=O)N([C@H](C)CO)C[C@H]2C)cc1
C[C@@H]1CCCCO[C@H](CN(C)C(=O)NC2CCCCC2)[C@@H](C)CN([C@H](C)CO)C(=O)c2cc(NC(=O)CCC(F)(F)F)ccc2O1
C[C@@H]1CN([C@H](C)CO)C(=O)c2cc(NC(=O)c3ccccc3)ccc2O[C@@H](C)CCCCO[C@H]1CN(C)S(=O)(=O)c1ccccc1
CC1CC2C3CCC4=CC(=O)C=CC4(C)C3(F)C(O)CC2(C)C1C(=O)CO (stereo not given)
C[C@H](CO)N1C[C@H](C)[C@H](CN(C)C(=O)Nc2cccc3ccccc23)OCCCC[C@H](C)Oc2ccc(NC(=O)c3ccncc3)cc2C1=O
C[C@@H]1CN([C@H](C)CO)C(=O)Cc2cc(NC(=O)Nc3ccc4c(c3)OCO4)ccc2O[C@H]1CN(C)Cc1ccc(C(F)(F)F)cc1
Cc1noc(C)c1NC(=O)N(C)C[C@@H]1OCCCC[C@H](C)Oc2ccc(NC(=O)c3ccccc3)cc2C(=O)N([C@@H](C)CO)C[C@H]1C
CCc1nc2ccc(C(=O)N3CCN(S(=O)(=O)CC)CC3)cn2c1N(CCC(C)C)CCN(C)C
C[C@H](CO)N1C[C@H](C)[C@H](CN(C)S(=O)(=O)c2ccc(Oc3ccccc3)nc2)OCc2cn(nn2)CCCC1=O
